# ChEMBL document CHEMBL1156829
# “And” between values parts separate entries of the source, which are not always exact repeats. Equal values may be shown once. Over roughly 5,400 compounds, “IFI” has its median near 2; the highest 2% begin near 22. Some of the results follow.
# Assay: NOVARTIS: Inhibition Frequency Index (IFI) - the number of HTS assays where a compound showed > 50% inhibition/induction, expressed as a percentage of the number of assays in which the compound was tested.
# Format: functional
row,SMILES,IFI
1,COc1cc(C(=O)Nc2cnc3ccccc3c2)ccc1-n1cnnn1,5.56%
2,CCC(=O)N(C)CCCNc1ccnc2cc(Cl)ccc12,3.74%
3,CC(C)(C)NC(=O)C(c1ccc(F)cc1)N(CCCN1CCOCC1)C(=O)c1ccc(-c2ccccc2)[nH]1 (stereo not given),3.16%
4,N#C/C(=C\NC1CCN(Cc2ccccc2)CC1)C(=O)c1cccs1,2.5%
5,COc1ccc(Cn2nnnc2CN2CCc3ccccc3C2)cc1,1.51%
6,CC(C)(C)C(=O)Nc1ccc(C23CC4CC(CC(c5ccccc5)(C4)C2)C3)cc1,0%
7,COC(=O)C1=C(C)NC2=C(C(=O)CC(c3ccc(OC)cc3)C2)C1c1ccccc1F (stereo not given),2.33%
8,CC(Oc1cccc(Cl)c1)C(=O)N1CCc2ccccc21 (stereo not given),0%
9,Cc1ccc(S(=O)(=O)NC(=O)Nc2ccc(N(C)C)cc2)cc1,3.2%
10,CC(C)Cc1ccc(/C=C/C(=O)NC2CC2)cc1,0%
11,CCN1C(=Cc2sc3ccccc3[n+]2C)C=Cc2cccc(C)c21,23.1%
12,O=C1Cc2c([nH]c3ccc(OCc4ccccc4)cc23)C2CC=CCC12 (stereo not given),0%
13,CC(=O)N(C1=C(N2CCCCCC2)C(=O)c2ccccc2C1=O)C1CCCCC1,7.14%
14,O=C(NCCN1CCOCC1)c1ccc(Cl)cc1,0.599%
15,COc1ccc(Nc2nc(N3CCCC3)c3ccccc3n2)cc1,0%
16,COc1ccccc1-n1c(=O)c2c3c(sc2n2c(C)nnc12)CCC3,0%
17,COc1ccc(-c2cc(C(F)(F)F)n3ncc(C(=O)NCc4ccccc4)c3n2)cc1,2.17%
18,O=C(NCCC(c1ccccc1)c1ccccc1)c1cccc([N+](=O)[O-])c1,0%
19,COc1ccc(C(=O)Nc2ccc3nsnc3c2)cc1OC,4.22%
20,CC1CC(C)CN(c2ccc([N+](=O)[O-])cc2-c2nnn[nH]2)C1 (stereo not given),0%
21,O=C(NCc1ccc2c(c1)OCO2)C1CNCC1c1ccc(C(F)(F)F)cc1 (stereo not given),1.37%
22,COc1cccc(Cn2c(C)nc3cc(NC(=O)Nc4ccccc4)c(C)nc32)c1,0%
23,N=c1n(CCN2CCCCC2)c2ccccc2n1CC(O)c1ccc(Cl)c(Cl)c1 (stereo not given),9.52%
24,CCOC(=O)c1ccc(OCC2c3cc(OC)c(OC)cc3CCN2C(=O)Nc2ccc(Cl)cc2)cc1 (stereo not given),4.84%
25,c1ccc(CN2CCC(NCc3c[nH]c4ccccc34)CC2)cc1,0%

row,SMILES,IFI
1,CC(C)(C)C(=O)Cn1ccc(=N)c2ccccc21,0%
2,COc1cc(OC)cc(C(=O)NCC2Cc3cc(Cl)cc(-c4ccncc4)c3O2)c1 (stereo not given),0%
3,COc1ccccc1Nc1nc(NCc2ccccc2)c2ccccc2n1,7.14%
4,Oc1cccc(-c2nc(-c3ccccc3)c(-c3ccc4oc5ccc(-c6[nH]c(-c7cccc(O)c7)nc6-c6ccccc6)cc5c4c3)[nH]2)c1,0%
5,Oc1ccccc1-c1nc2ncccn2c1Nc1cccc(C(F)(F)F)c1,14.3%
6,COc1cc2c(N3CCOCC3)cc(O)c(CC(=O)Nc3ccccc3)c2cc1OC,4.41%
7,CSc1nc2nc(C)c(Cc3cccc(F)c3)c(C)n2n1,1.28%
8,CCCc1nc2ccc(NC(=O)NCC)cc2c(=O)n1Cc1ccc(-c2ccccc2)cc1,7.27%
9,Oc1ccc(-c2ccnc3cc(Cl)ccc23)cc1CNCCCn1ccnc1,4.31%
10,CC(C)CCNCC(O)Cn1c2ccc(Cl)cc2c2cc(Cl)ccc21 (stereo not given),5.88%
11,CCC(=O)Nc1ccc(C(=O)NN=Cc2cc([N+](=O)[O-])ccc2O)cc1,0%
12,Cc1cccc(N=C2NC(=O)/C(=C\c3ccc(N(C)C)cc3)S2)c1,11.8%
13,Cc1ccc(NC(=O)C2CSC(c3cccc(F)c3)N2C(=O)c2ccc(C(C)(C)C)cc2)cc1C (stereo not given),4.25%
14,CCOC(=O)c1cnc2ccc(OC)cc2c1O,1.56% and 1.16%
15,O=C1C2C(C(=O)N1Cc1ccccc1)C1(c3ccccc3)C(=O)C2(c2ccccc2)C(c2ccccc2)=C1c1ccccc1 (stereo not given),0%
16,CCc1cc(=O)n(C)c(SC(CC)C(=O)Nc2ccc(F)cc2)n1 (stereo not given),3.12%
17,COc1ccc(CN2CCC(C(=O)Nc3ccc(Oc4cccnc4)cc3)CC2)cc1,0%
18,O=C(O)CCCNC(=O)C(O)(c1ccccc1)c1ccccc1,0%
19,CN(C)c1cc[n+](Cc2ccccc2)cc1,1.54%
20,CCOc1ccc(N(C(=O)C2COc3ccccc3O2)C(C(=O)NC2CCCCC2)c2cn(C)nc2C)cc1 (stereo not given),1.71%
21,Oc1cccc(C=Nc2ccccc2)c1O,2.44%
22,CCN1CCC(Nc2ccnc3cc4ccccc4cc23)CC1,9.09%
23,CCCN1CCN(CCCNC(=O)c2ccc3c(c2)sc2nc(-c4ccc(OC)cc4)cn23)CC1,0%
24,O=C(NCCCN1CCCC1=O)C(=O)NCC(c1ccco1)N1CCOCC1 (stereo not given),2.22%
25,CNc1nc(NN=Cc2cc([N+](=O)[O-])ccc2O)nc(Nc2cccc(C(F)(F)F)c2)n1,2.3%

row,SMILES,IFI
1,CCOc1ccc(NC(=O)C(C)Sc2nc3ccccc3[nH]2)cc1 (stereo not given),0%
2,CC(=O)N(C1=C(N2CCCCC2)C(=O)c2ccccc2C1=O)c1ccc(F)c(F)c1,0%
3,CCN(CC)CCCNc1nc2cc(OC)c(OC)cc2c2nc(-c3ccccc3)nn12,8.33%
4,O=C(Nc1cc(C(=O)N2CCC(Cc3ccccc3)CC2)ccc1N1CC2CC(C1)c1cccc(=O)n1C2)c1cccs1 (stereo not given),0%
5,COc1ccc2nc3cc(Cl)ccc3c(NCCN(CCN)CCN)c2c1,14.5%
6,CCOc1ccc(-c2noc(-c3ccncc3)n2)cc1OCC,0%
7,COc1cc(NC(C)CCCN(Cc2ccccc2OC)C(=O)c2cccc(Br)c2)c2ncccc2c1 (stereo not given),3.81%
8,CCN1/C(=C/c2ccc3ccccc3[n+]2CC)Sc2cc(NC(C)=O)ccc21,8.33%
9,CCCCCCN(C(=O)Nc1cccc(C#N)c1)C(CC)c1nc2ccccc2c(=O)n1CCC(=O)OC (stereo not given),1.85%
10,CC(C)(C)NC(=O)c1cn(C2CCCCC2)cc(C(=O)NC2CCN(Cc3ccccc3)C2)c1=O (stereo not given),0.971%
11,Cc1ccc(-n2c(SCc3cccc(C)c3)nnc2C(Cc2ccccc2)NC(=O)NC(C)(C)C)cc1 (stereo not given),1.09%
12,CCOC(=O)c1ccc2c(c1)[C@@H]1C=CC[C@@H]1[C@H](c1ccc(OC)c([N+](=O)[O-])c1)N2,0%
13,COc1cc(NC(C)CCCN(Cc2ccc(Cl)cc2)C(=O)c2ccc(Cl)cc2Cl)c2ncccc2c1 (stereo not given),6.48%
14,Fc1ccc(C2(CCCSc3nnc4c(n3)[nH]c3ccccc34)OCCO2)cc1,4.67%
15,C=C[C@H]1CN2CC[C@H]1C[C@H]2[C@H](O)c1ccnc2ccc(OC)cc12,2.01% and 2.63%
16,O=C1Nc2ccccc2C12Nc1ccccc1-c1nc3ccccc3n12 (stereo not given),0%
17,CN1c2ccccc2N(C)C1c1ccco1,1.43%
18,CC(C)CN(CC(O)CN(CCN1CCOCC1)S(=O)(=O)Cc1ccccc1)C(=O)C1CCCN1C(=O)OC(C)(C)C (stereo not given),1.96%
19,Cc1cccc(C)c1NC(=O)N1CCN(C2CCCCC2)CC1,0%
20,CC1CCCN(Cc2nnnn2-c2ccc(Cl)cc2)C1 (stereo not given),0%
21,COC(=O)c1sc(-c2ccccc2)cc1NC(=O)c1ccc(S(=O)(=O)N2CCCCCC2)cc1,0%
22,c1ccc(CN2CCC(Nc3ncnc4cc(-c5ccccc5)sc34)CC2)cc1,3.47%
23,O=C(NCC1CCCO1)c1ccc([N+](=O)[O-])cc1Cl (stereo not given),0%
24,COc1cc(/C=C2/SC(=Nc3ccccc3)NC2=O)ccc1OCc1ccccc1Cl,2.3%
25,Cc1nc2sccn2c1-c1csc(Nc2ccccn2)n1,6.77%

row,SMILES,IFI
1,Cc1ccccc1N1C(=O)C2C3c4ccccc4C(C(=O)O)(c4ccccc43)C2C1=O (stereo not given),0%
2,COc1cc(NC(C)CCCN(Cc2ccccc2OC)C(=O)c2ccc(C)c([N+](=O)[O-])c2)c2ncccc2c1 (stereo not given),1.83%
3,CCN1CCN(CCCNC(=S)Nc2ccc3nc(N4CCCC4)cc(C)c3c2)CC1,7.69%
4,c1cc(-c2cccc3cccnc23)nc(N2CCN(CCN3CCCC3)CC2)c1,4%
5,CCOc1ccccc1C1C(C#N)=C(SCC(=O)Nc2ccc(Cl)cc2)NC(C)=C1C(=O)Nc1ccccc1 (stereo not given),3.61%
6,Cc1cc2ncn(N=Cc3cccnc3)c2cc1C,0%
7,CCOC(=O)N1CCN(C(=O)CCCCn2c(=S)[nH]c3ccsc3c2=O)CC1,2.3%
8,CCN1C(=Cc2sc3ccc(OC)cc3[n+]2CC)C=Cc2ccccc21,25%
9,CCc1ccc(NC(=O)c2ccc(F)c(S(=O)(=O)NC3CCCC(C)C3C)c2)cc1 (stereo not given),0%
10,S=C(NCc1ccco1)NN=CC=NNC(=S)NCc1ccco1,11.7%
11,O=S(=O)(c1ccc(Cl)cc1)N1CCN(C(=S)NCC2CCCO2)CC1 (stereo not given),4.54%
12,CSc1nnc(CN2CCSCC2)n1C,0%
13,CC(=O)Oc1ccccc1-c1nc2ccccn2c1NC(C)(C)CC(C)(C)C,3.77%
14,COc1ccc(NC2=C(c3ccc(C(F)(F)F)cc3)C(=O)c3ccccc32)cc1,0%
15,O=C(NC(=C(Cl)Cl)[P+](c1ccccc1)(c1ccccc1)c1ccccc1)c1ccc(F)cc1,27.3%
16,CC(C)(C)CC(C)(C)Nc1c(-c2ccccc2OC(=O)C(c2ccccc2)c2ccccc2)nc2ccccn12,4.76%
17,COc1cc(OC)cc(C(=O)N(CCCC(C)Nc2cc(OC)cc3cccnc23)Cc2ccc(Cl)cc2)c1 (stereo not given),3.67%
18,CC(=O)c1ccc(OCc2cc(C(=O)N3CCCCC3c3cccnc3)no2)cc1 (stereo not given),0%
19,Cc1cc(Nc2cc3ccccc3cc2O)n2ncnc2n1,4.17%
20,Cc1ccc2cc3c(N)c4c(C)ccc(C)c4nc3nc2c1,7.21%
21,COc1cc(NC(C)CCCN(Cc2ccc(OC)c(OC)c2)C(=O)c2ccccc2C)c2ncccc2c1 (stereo not given),0.926%
22,Cc1nnc2sc(SCc3cccc([N+](=O)[O-])c3)nn2c1=O,0%
23,COc1ccc(C2=C(Nc3ccc4oc5ccccc5c4c3)c3ccccc3C2=O)cc1,0%
24,CC(C)(C)c1ccc(-c2c[n+](-c3ccccc3)c3n2CCCS3)cc1,23.1%
25,C(=C1\C(c2ccccc2)=Nc2ccccc21)/c1c(-c2ccccc2)[nH]c2ccccc12,21.4%
